From patent publication US20180282386A1 (REGENTS OF THE UNIVERSITY OF MINNESOTA, published 2018) come the findings set out here.

In this test the target is T1, CD133 on Caco-2 cells (human, UniProt O43490 20-865).
T1 construct: whole, on cells; also called prominin-1
T1 sequence (looked up): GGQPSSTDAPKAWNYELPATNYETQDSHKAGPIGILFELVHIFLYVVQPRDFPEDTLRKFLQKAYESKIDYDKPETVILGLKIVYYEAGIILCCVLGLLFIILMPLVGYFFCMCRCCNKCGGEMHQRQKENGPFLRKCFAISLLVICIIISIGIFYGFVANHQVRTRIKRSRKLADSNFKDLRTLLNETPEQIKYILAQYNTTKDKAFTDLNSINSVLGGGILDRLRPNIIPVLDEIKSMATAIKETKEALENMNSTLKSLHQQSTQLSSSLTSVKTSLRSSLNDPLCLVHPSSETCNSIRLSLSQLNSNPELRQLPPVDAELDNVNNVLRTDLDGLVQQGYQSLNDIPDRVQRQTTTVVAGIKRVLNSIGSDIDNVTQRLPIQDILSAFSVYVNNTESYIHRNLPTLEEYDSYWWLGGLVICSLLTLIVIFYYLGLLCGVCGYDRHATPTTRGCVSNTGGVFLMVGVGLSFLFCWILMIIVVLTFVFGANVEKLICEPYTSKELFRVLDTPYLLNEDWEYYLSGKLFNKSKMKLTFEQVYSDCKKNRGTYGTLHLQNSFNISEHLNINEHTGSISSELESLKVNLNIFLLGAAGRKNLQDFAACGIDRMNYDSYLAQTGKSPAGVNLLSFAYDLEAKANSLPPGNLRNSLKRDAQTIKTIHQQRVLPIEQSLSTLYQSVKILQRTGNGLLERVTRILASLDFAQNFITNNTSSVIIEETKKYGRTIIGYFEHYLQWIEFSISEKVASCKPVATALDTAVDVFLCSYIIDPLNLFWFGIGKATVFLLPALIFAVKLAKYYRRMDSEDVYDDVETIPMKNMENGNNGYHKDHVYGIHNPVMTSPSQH
Description: flow cytometry, FITC-labeled 1615133 TriKE (1-500 nM) on Caco-2 cells. For orientation: Flow cytometry measures light scatter and fluorescence of single cells or particles in a stream.

B1: 1615133 TriKE (other)
chain: MEVQLVESGGGVVRPGGSLRLSCAASGFTFDDYGMSWVRQAPGKGLEWVSGINWNGGSTGYADSVKGRFTISRDNAKNSLYLQMNSLRAEDTAVYYCARGRSLLFDYWGQGTLVTVSRGGGGSGGGGSGGGGSSELTQDPAVSVALGQTVRITCQGDSLRSYYASWYQQKPGQAPVLVIYGKNNRPSGIPDRFSGSSSGNTASLTITGAQAEDEADYYCNSRDSSGNHVVFGGGTKLTVLPSGQAGAAASESLFVSNHAY[letters of about 120 residues omitted]EASGGPEDIVLSQSPAIMSASPGEKVTISCSASSSVSYMYWYQQKPGSSPKPWIYRTSNLASGVPARFSGSGSGTSYSLTISSMEAEDAATYYCQQYHSYPPTFGAGTKLELKSSGGGGSGGGGGGSSRSSLEVKLVESGPELKKPGETVKISCKASGYTFTDYSMHWVNQAPGKGLKWMGWINTETGEPSYADDFKGRFAFSLETSASTAYLQINNLKNEDTATYFCATDYGDYFDYWGQGTTLTVSS
modifications: FITC label (site not stated)
notes: Single-chain fusion
In the case of B1, the binding result was “binds”.
